For the assay, the system named is NCI-H322M lung. Nature of the assay: growth of human tumour cells (NCI), 48 h.

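How tested: cells in 96-well plates exposed to compound for 48 hours at five concentrations. At the GI50, growth is halved. The concentration for full growth arrest is given as TGI.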

As for `Oc1ccc(F)c(Nc2nc(SCCN3CCOCC3)nc3c2cnn3CC(Cl)c2ccc(Br)cc2)c1` (centres undefined), the GI50 was 30.3 µM and the TGI is above 100 µM.

With `COc1cc(/C=C/C(=O)c2ccc(C)cc2)ccc1Oc1nc(Nc2ccc(F)cc2)nc(N(C)C)n1`, the GI50 is 51.9 µM and the TGI was above 100 µM.
